Assay results taken from the supplement of paper PMC3334620.
The full ranking holds about 33,000 sequences; the median of “E-score (-0.5 to 0.5)” is about -0.036, and the highest 2% start at about 0.37. Some of the results follow.

Each sequence was assayed against T1, Yer064c (UniProt P40041) (assay: PBM E-score (8-mer binding enrichment) (E-score (-0.5 to 0.5)); higher = stronger / more preferred TF binding; most listed sequences are background and not binding sites). Settings: protein concentration: 200 nM; construct: GST-full length.
T1 sequence: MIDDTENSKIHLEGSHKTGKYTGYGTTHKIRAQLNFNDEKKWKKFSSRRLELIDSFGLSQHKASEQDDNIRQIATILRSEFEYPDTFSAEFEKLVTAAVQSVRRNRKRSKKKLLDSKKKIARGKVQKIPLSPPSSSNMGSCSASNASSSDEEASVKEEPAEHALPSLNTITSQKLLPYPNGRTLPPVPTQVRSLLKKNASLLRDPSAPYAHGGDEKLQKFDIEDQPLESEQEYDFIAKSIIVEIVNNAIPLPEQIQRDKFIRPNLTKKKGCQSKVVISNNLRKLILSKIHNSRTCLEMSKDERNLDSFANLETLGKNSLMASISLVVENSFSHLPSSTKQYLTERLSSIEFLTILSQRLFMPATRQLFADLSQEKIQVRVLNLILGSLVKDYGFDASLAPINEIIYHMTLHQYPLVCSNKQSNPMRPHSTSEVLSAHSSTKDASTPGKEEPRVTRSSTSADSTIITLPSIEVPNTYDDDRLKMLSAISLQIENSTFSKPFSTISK
How it was run: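 Masliner-normalised scans of fluorescent anti-GST signal were the basis for scoring. That signal came from GST-tagged yeast transcription factors applied at about 100-200 nM to double-stranded universal all-10-mer Agilent arrays on fresh or once-stripped slides. Each ungapped eight-base word, pooled with its reverse complement, received an E-score from the Universal PBM Analysis Suite.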

| Sequence | PBM E-score |
| --- | --- |
| CTAGGTTC | -0.261 |
| CACAGATG | -0.0412 |
| GGTACACA | 0.0651 |
| CCTGTGAG | 0.106 |
| GAACCGGC | -0.259 |
| CCTTATCA | 0.0682 |
| ACACCGCG | -0.216 |
| ACATTCTC | 0.0935 |
| ACCCAGAC | -0.0338 |
| GCCCATCC | -0.0789 |
| AATCGGCT | 0.0116 |
| CTTATTAA | 0.0408 |
| CAAAGTTC | -0.253 |
| CAGGGCAG | 0.0496 |
| AGTATTCG | -0.0987 |
| CATTGTGC | -0.123 |
| CGGCGGCC | -0.0839 |
| TACTAACA | 0.0931 |
| CAGGAATC | 0.313 |
| TATAATGA | 0.256 |
| CGTATCCC | -0.26 |
| ATTAAGTG | 0.167 |
| GGTTCAAA | 0.104 |
| CGCACCAG | 0.0347 |
| AGAACCAG | -0.126 |

| Sequence | PBM E-score |
| --- | --- |
| GCGCCACC | -0.247 |
| GCGCGGGA | -0.0795 |
| ATTTCATC | 0.0085 |
| GCGTTACA | -0.0732 |
| GCAGCAGA | -0.104 |
| ATCTGTGG | -0.128 |
| AGTACTTC | 0.174 |
| GCCCTGTA | -0.0987 |
| GTTTTCTA | -0.0628 |
| ATAATCCG | 0.128 |
| GCAAAAAA | -0.0402 |
| ATTCCGGA | -0.0513 |
| GAAAAAGA | 0.0806 |
| CCTTGGCC | -0.359 |
| CAGAGGAG | -0.025 |
| CAACGCTC | -0.136 |
| GCGTTTCC | -0.283 |
| AGTCGTAG | 0.406 |
| GCATATTA | -0.00511 |
| GTACGTCA | -0.0319 |
| AGCGTGAT | 0.278 |
| GAGTTCTA | 0.0136 |
| ATGATTCG | 0.437 |
| CTACCTTA | 0.0146 |
| TACAGGAA | -0.0268 |

| Sequence | PBM E-score |
| --- | --- |
| CCTTTCAC | -0.187 |
| ATTGGCCG | -0.162 |
| CAGACGCC | -0.187 |
| GCGTTCCA | -0.187 |
| ATTTGCAG | -0.0944 |
| AGGCGAAG | -0.0366 |
| CCGCCCAA | -0.207 |
| GGCACAAC | 0.0273 |
| CAAAGGTA | 0.0773 |
| TGTTCCAA | 0.0885 |
| ACTACTGC | 0.0248 |
| CCTCACAC | -0.0666 |
| GCATGAGA | 0.105 |
| ACATTGAC | 0.154 |
| CCAACTCA | 0.177 |
| GTTCCTAA | 0.117 |
| CGAGCTCC | -0.122 |
| AGGGGTGA | 0.123 |
| CAAACGGG | -0.164 |
| CTCGCTGA | -0.0819 |
| GCGTAAAC | -0.0466 |
| GAACCGTA | -0.0645 |
| CCGCAGCG | 0.0625 |
| ACTTTGGC | -0.0333 |
| ACTATCGA | 0.0488 |

| Sequence | PBM E-score |
| --- | --- |
| ATAAAACG | -0.0532 |
| ATCCGTGG | -0.291 |
| GATATGGA | -0.00211 |
| AGGTTCGG | -0.193 |
| ATACATTA | 0.123 |
| AGGCGACA | -0.245 |
| GCATTTCA | -0.128 |
| AATCCGAA | 0.0514 |
| CAGGGAAA | -0.14 |
| AAGCTGGC | -0.183 |
| AGACCGGC | -0.0648 |
| AATGTCCC | -0.152 |
| GTACCCAA | -0.0895 |
| CACATCTA | 0.0403 |
| CTGCCCTC | -0.185 |
| CAGAACCC | -0.0369 |
| AGTATACC | 0.00468 |
| GACTAGTC | 0.408 |
| GCGACCAC | -0.244 |
| AGAACCGA | -8e-05 |
| CAGGTGCG | -0.114 |
| AGGTCCCC | -0.281 |
| AGTCGTGC | 0.371 |
| ATGTTAGC | -0.0802 |
| AGTTGCAC | -0.131 |

| Sequence | PBM E-score |
| --- | --- |
| ACTCAATC | 0.404 |
| TAGTTAGA | 0.271 |
| CCATGAAC | 0.0048 |
| AGAACGGC | -0.172 |
| TATGGACA | -0.125 |
| ACGTTCGC | -0.131 |
| ACTGGCTC | -0.0418 |
| AATCAACG | 0.308 |
| CAAAAATA | 0.17 |
| GGTTGTAC | -0.0258 |
| ATGAACGC | -0.015 |
| GTCGAAAC | 0.131 |
| GCCACGCC | -0.295 |
| ATAGCGTC | -0.148 |
| CTACAGGC | -0.169 |
| CACTTCGA | -0.0426 |
| ACATGTTG | 0.0417 |
| GCGAGGGA | -0.189 |
| ACATTTCC | -0.0856 |
| CCAAATCC | -0.226 |
| GATTCAGC | 0.258 |
| GCCTAGAA | -0.146 |
| TCCTATAA | 0.0495 |
| CAATAATG | -0.0841 |
| GAAGACAA | 0.0132 |

| Sequence | PBM E-score |
| --- | --- |
| TGAAGAAA | 0.113 |
| CCACATCC | -0.137 |
| CAGACTGG | 0.0136 |
| CTATCCGA | -0.0351 |
| AGATTGAT | 0.0609 |
| AAGACGTG | -0.0225 |
| GCATAGTA | -0.208 |
| CATGTTGA | 0.209 |
| GCCGTCTA | -0.264 |
| ATCTGTCG | -0.177 |
| CCATGCTA | -0.0909 |
| ATCCCTTA | -0.0806 |
| TCTTCAAA | 0.09 |
| GCCTACCA | -0.192 |
| ATAATGAG | 0.181 |
| CACACCTG | -0.0672 |
| AGGCACGG | -0.0585 |
| CTCAGTTC | 0.0697 |
| AAACTGAT | 0.0751 |
| AAGTCTTA | 0.213 |
| GTAACAAC | -0.0396 |
| GGCGTGCA | -0.23 |
| GCTAACAA | -0.0268 |
| CTAACAAA | 0.0927 |
| TACACACA | 0.157 |

| Sequence | PBM E-score |
| --- | --- |
| ACCATAGA | 0.0535 |
| CGTCGATC | 0.0258 |
| CTCATCGC | 0.206 |
| GTGCATGA | 0.178 |
| AACCAGTA | -0.0555 |
| CCTGTGCG | -0.245 |
| CAACTTAA | 0.0943 |
| CGATGTTA | -0.128 |
| AGTAGAAA | -0.0164 |
| CACTTACC | 0.0118 |
| GAAGTAAC | -0.164 |
| CGGGGAAA | -0.181 |
| TGCCATAA | -0.147 |
| GTGCAACA | -0.0209 |
| TACCCTAA | -0.0746 |
| GTGTGATA | 0.00432 |
| AGGTTTAT | -0.0489 |
| AGGGTACC | -0.188 |
| GCGACATA | -0.0374 |
| AAGATGGC | -0.00295 |
| GATATCCC | -0.216 |
| AATTCACC | -0.0422 |
